The list shows a part of the results. At the low end of the ranking the order means little. Measured with an extract: partners may take part in the binding.

The target in the assay is T1, HNF4alpha8 (COS-7 nuclear extract) (UniProt P41235-5).
T1 sequence: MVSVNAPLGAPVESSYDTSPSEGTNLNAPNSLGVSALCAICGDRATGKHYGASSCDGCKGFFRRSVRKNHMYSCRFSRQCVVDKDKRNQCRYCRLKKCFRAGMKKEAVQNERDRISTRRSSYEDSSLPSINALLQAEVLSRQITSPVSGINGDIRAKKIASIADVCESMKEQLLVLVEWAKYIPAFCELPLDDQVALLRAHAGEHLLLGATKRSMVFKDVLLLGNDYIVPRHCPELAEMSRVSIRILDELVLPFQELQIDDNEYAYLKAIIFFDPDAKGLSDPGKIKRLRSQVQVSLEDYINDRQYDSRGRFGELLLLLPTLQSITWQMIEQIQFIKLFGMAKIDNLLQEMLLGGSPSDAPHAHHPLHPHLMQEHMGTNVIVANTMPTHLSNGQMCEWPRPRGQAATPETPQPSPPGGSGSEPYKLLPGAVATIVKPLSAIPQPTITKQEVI
Kind of assay: protein-binding microarray. The note with it: COS-7 nuclear extract on double-stranded Agilent 4x180k PBM; binding buffer, salt, pH and temperature not given; high values mean tight binding; double strand, one strand shown; sequences stand for … in …GCCTAGGGAGATTAGAGTATCGGTCGA
Turning to AAATCTTCCCTCCTGTGAACTCGCGCCCCA, the binding signal (log2 normalized intensity) stood at 1.91.
As for GACCTTTGACTGCAGAAGATAAGAATCTCT, the figure is 3.73; as for ATAAGGCAGTGGTTTGCAGTTGGAAAGCTG, -1.33; as for ATGTGTTTGCATGACTCATAAAGAACAGTT, 0.739.
Consider TTGACCTTCTCTGTTAACCCTTTGCAGCCC, for which the binding signal (log2 normalized intensity) was 2.91.
As for AATTTACATAACAGGTTTGTAACTTCTTGG, the figure is 0.645; as for TGTCTCCAGAAATCAACCTTTGATCGTTTG, 6.77.
Consider GGTCTACATGGAAGCCCAGATGACTGCCTT, for which the binding signal (log2 normalized intensity) was -1.26.
As for GAAGCAATGGCCCTCAGCAAACCTTCTGGC, the figure is -1.42; as for TTCATTTGCCCAGCTGTTCCGTGTTCCAGA, 0.368.
AGCCTAGACAAGGCACCAAAGGAATCTACA: the binding signal (log2 normalized intensity) is -1.26.
As for TGCCCAGCAGAAAAGCTGTACCAATTATTG, the figure is -1.06.
As for TCTCACTGCAACCTGAGTGCCAGAGCTGTG, the figure is -0.984; as for TCTCTGACGCTCAGTAAATCTGCACTTTAC, 2.76; as for GTGCTAAAGGTCATATCCAAAATATTTGCA, 3.11.
In the case of AAAGTGCATTGAAAGCACTAATTAACTGAG, the binding signal (log2 normalized intensity) was -1.22.
Regarding TTCATTATGGATAGGCACATATTGGATCTC, the binding signal (log2 normalized intensity) was 1.32.
As for TAGATGTGCTATATAAAAACTAACCATACT, the figure is -1.44; as for GGTTTTTCCATTGTACTCAGTATGTGCTGA, 1.36; as for GGACACAGAATGACTTTCAGAAAGTCCTTG, 0.56.
As for AAGGACCTAGAGCTATTCCTTTGAAATGTT, the figure is 0.636; as for ACAGTACAAAGGTGAGCTTTTATCTTAAGT, 3.1; as for TCTGATCCTTTACAGAGATAAGAGGTGTCA, 0.332.
As for TCTGCAAGGAAGGTGGGGGCCGCCCATTGG, the figure is -1.35; as for CATTTTAACCTTTGGCTGGTAGAGCAGGTT, 3.14; as for CCGAGCCTCAGCCGGGAGAGGAGGCCCCCT, 2.18.
As to CGTGGGCGTGAGTTTGCTGTCTTGACTTGG, the binding signal (log2 normalized intensity) is 1.19.
As for AAATCCCTGGTCAAAGTCAACTCCTCCAAG, the figure is -1.25; as for GTTTTTAAGACAAACAAAAAACCCTAGAGA, -1.44.
In the case of GCTGGAGCTCCTGGGCCAAAGGGCATTCTG, the binding signal (log2 normalized intensity) is 4.62.
For the sequence TTGATAACCTACAACCTTCTGAGATGGAGC, the binding signal (log2 normalized intensity) was -1.2.
As for TTATGAAGGGGGGTGGGGAGGCAGGTGGCT, the figure is -1.3; as for AAGAAAGTTGAGGTGAATACACAGCTAGCA, -1.25.
As for CTGGCTGCCCTGGGGTGACAGCTTTCTCCT, the figure is -0.448.
For the sequence ACCACTTTGAAATAGTGACCTCTGCTGGCC, the binding signal (log2 normalized intensity) is 3.43.
As for ATCGCCACTGATTGAGGTTCACTCTATGTT, the figure is -0.9; as for GCATTTTTTGTAGATGCCTGCTTTCCACTC, 1.39; as for CGCCGCTTCCCCACCCCCTCTCCTCCCTCG, 5.29.
As for TTTTTTTTCTTAATTGCCCTTTGCCCTTTG, the figure is 9.03; as for TTAACATTGCCGACCTCATGAGTAGAGAGC, 0.0683.

The record behind these values is article PMC10726135.
